Some of the results follow. Sequences were assembled here from the parent chain. Values near 0.05 are background.
B1: TEV protease; numbered along this chain (parent)
chain: MGESLFKGPRDYNPISSSICHLTNESDGHTTSLYGIGFGPFIITNKHLFRRNNGTLVVQSLHGVFKVKDTTTLQQHLVDGRDMIIIRMPKDFPPFPQKLKFREPQREERICLVTTNFQTKSMSSMVSDTSCTFPSGDGIFWKHWIQTKDGQCGSPLVSTRDGFIVGIHSASNFTNTNNYFTSVPKNFMELLTNQEAQQWVSGWRLNADSVLWGGHKVFMVKPEEPFQPVKEATQL

Variants of: B1
Assay: raw area under fraction-flipped curve 0-4 h after induction (AUC4h, not background-subtracted), DNA-recorder readout of cleavage of the substrate (dimensionless); higher = more cleavage of the substrate by the protease variant
Settings: temperature: 34 °C; time window: 0-4 h after rhamnose induction
Description: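 In vivo DNA recorder in E. coli TOP10(DE3) ΔrhaA at 34 °C. Each TEVp single-site mutant (parent TEVp 0) is paired with a single-site variant of the 7-mer TEVs (canonical ENLYFQ|S). The substrate sits between flexible linkers in a Bxb1-sfGFP-TEVs-SsrA fusion, so cleavage stabilises Bxb1 and speeds flipping of a recombination array, read by NGS. The value is the raw area under the fraction-flipped curve over 0-4 h after rhamnose induction (AUC4h), with ≥20 reads per time point. It is not background-subtracted; inactive controls average about 0.047.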
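Also: Bxb1 expression induced with 0.2% (w/v) L-rhamnose at OD600 near 0.5, cultures sampled hourly, flipped fraction per protease–substrate barcode pair counted by paired-end Illumina sequencing.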

Row | Variant | area with substrate CNLYFQS | area with substrate GNLYFQS | area with substrate HNLYFQS | area with substrate LNLYFQS | area with substrate PNLYFQS | area with substrate QNLYFQS | area with substrate VNLYFQS | area with substrate MNLYFQS | area with substrate NNLYFQS | area with substrate SNLYFQS | area with substrate WNLYFQS | area with substrate YNLYFQS | area with substrate FNLYFQS | area with substrate INLYFQS | area with substrate KNLYFQS | area with substrate TNLYFQS | area with substrate DNLYFQS | area with substrate RNLYFQS
1 | K100T | 0.0867 | 0.0678 | 0.036 | 0.0587 | 0.099 | 0.0466 | 0.0631 | – | – | – | – | – | – | – | – | – | – | –
2 | K100W | 0.0588 | – | 0.0541 | – | 0.0736 | 0.0609 | 0.0821 | 0.063 | 0.053 | 0.0664 | 0.0591 | 0.0646 | – | – | – | – | – | –
3 | F101Q | 0.0392 | 0.0586 | 0.054 | 0.0527 | 0.0562 | – | 0.0504 | – | 0.0464 | 0.0392 | 0.0556 | 0.0351 | 0.0715 | 0.0443 | 0.0577 | 0.0551 | – | –
4 | E103K | 0.0732 | – | – | 0.0486 | 0.0567 | 0.0667 | – | – | 0.0769 | 0.0643 | 0.0742 | 0.0591 | – | – | 0.0607 | 0.0595 | – | –
5 | E103Y | 0.0607 | – | – | – | – | – | – | – | – | – | 0.0554 | – | – | 0.0622 | – | 0.0664 | 0.0803 | –
6 | P104Y | 0.0511 | 0.0514 | 0.0532 | 0.0655 | – | – | 0.048 | 0.0441 | 0.0383 | 0.0393 | 0.0512 | 0.0577 | 0.045 | 0.0605 | 0.0568 | 0.0598 | – | 0.102
7 | Q105K | 0.0732 | 0.0757 | 0.0716 | 0.0602 | 0.0725 | – | 0.0848 | 0.0728 | 0.0738 | 0.0741 | 0.0626 | – | 0.0702 | 0.0567 | – | 0.0592 | – | –
8 | Q105N | 0.0721 | 0.0939 | 0.0793 | 0.0796 | 0.0791 | 0.0683 | 0.0695 | 0.0717 | 0.0731 | 0.086 | 0.0666 | 0.0534 | 0.0582 | 0.0507 | 0.0601 | 0.0733 | – | –
9 | Q105T | 0.0656 | 0.0683 | – | 0.0798 | – | – | 0.0676 | – | – | – | 0.067 | – | – | 0.059 | – | 0.0528 | – | 0.0714
10 | R106I | 0.0671 | – | 0.0638 | – | 0.083 | – | 0.0745 | 0.0721 | 0.0665 | – | 0.0539 | 0.0927 | 0.0363 | 0.0617 | 0.0544 | 0.0707 | – | –
11 | E108N | 0.0622 | 0.061 | 0.0491 | 0.0676 | 0.0822 | 0.0647 | 0.0525 | – | 0.0689 | 0.0587 | 0.0529 | 0.0472 | 0.0564 | 0.0571 | 0.074 | 0.0517 | – | –
12 | E108P | 0.06 | – | 0.0538 | 0.0337 | – | – | – | – | – | 0.0406 | 0.0538 | 0.0434 | – | 0.0488 | 0.0068 | 0.0436 | – | –
13 | E108Y | 0.0567 | – | 0.056 | 0.0363 | 0.0468 | – | – | 0.0496 | 0.0532 | – | 0.0548 | 0.0451 | 0.112 | 0.0559 | 0.11 | 0.0554 | – | –
14 | R109C | 0.0614 | 0.0657 | – | 0.0656 | 0.0587 | 0.081 | 0.0586 | 0.0588 | 0.0689 | – | 0.0648 | – | – | 0.08 | – | 0.0631 | – | 0.0502
15 | R109P | 0.0534 | 0.0701 | 0.0672 | 0.0738 | 0.0732 | – | 0.0698 | 0.0545 | 0.0768 | – | 0.0659 | 0.0597 | 0.0713 | 0.0635 | 0.0679 | 0.0686 | – | –
16 | I110H | 0.0541 | 0.0665 | 0.056 | 0.053 | 0.0522 | – | 0.0559 | – | 0.0424 | 0.0553 | – | 0.0354 | 0.0571 | 0.0626 | 0.0638 | 0.0433 | – | –

Row | Variant | area with substrate CNLYFQS | area with substrate GNLYFQS | area with substrate HNLYFQS | area with substrate LNLYFQS | area with substrate PNLYFQS | area with substrate QNLYFQS | area with substrate VNLYFQS | area with substrate MNLYFQS | area with substrate NNLYFQS | area with substrate SNLYFQS | area with substrate WNLYFQS | area with substrate YNLYFQS | area with substrate FNLYFQS | area with substrate INLYFQS | area with substrate KNLYFQS | area with substrate TNLYFQS | area with substrate DNLYFQS | area with substrate RNLYFQS
17 | C111K | 0.0759 | 0.0693 | 0.059 | – | 0.0712 | – | – | – | – | 0.0654 | 0.0706 | 0.0622 | 0.0735 | – | – | 0.0732 | – | 0.036
18 | V113C | 0.0982 | – | 0.0626 | 0.0572 | 0.068 | 0.0765 | 0.0442 | 0.0672 | 0.076 | 0.0664 | 0.0646 | 0.06 | 0.0551 | 0.0581 | – | 0.0682 | – | 0.0681
19 | V113D | 0.052 | 0.0574 | 0.0556 | 0.0451 | – | – | 0.0446 | 0.0495 | 0.0537 | 0.0532 | 0.0539 | 0.0455 | 0.0333 | 0.0548 | 0.0534 | 0.0478 | – | –
20 | V113H | 0.0778 | – | – | 0.0663 | 0.06 | – | – | 0.0454 | – | 0.067 | 0.0619 | 0.0403 | – | 0.0986 | 0.0594 | 0.0734 | – | –
21 | V113L | 0.0668 | 0.0714 | 0.0703 | – | 0.0604 | – | 0.0671 | 0.0722 | – | 0.0648 | 0.0697 | 0.0517 | 0.0682 | 0.0641 | – | 0.0661 | – | –
22 | V113N | 0.0506 | 0.0555 | 0.0494 | 0.0558 | 0.0541 | – | – | 0.0606 | 0.0658 | – | 0.0542 | 0.0677 | – | – | 0.0662 | 0.0498 | – | –
23 | T114M | 0.0702 | 0.0684 | 0.0428 | 0.0779 | – | – | 0.0624 | 0.0871 | 0.0692 | 0.0645 | 0.0769 | 0.0568 | 0.0643 | – | – | 0.0765 | – | –
24 | T115C | 0.0714 | – | 0.0734 | – | 0.0662 | – | 0.0547 | 0.0469 | 0.063 | – | 0.0612 | – | 0.0783 | 0.0958 | 0.0707 | 0.0628 | – | –
25 | N116A | 0.0653 | – | 0.0823 | – | 0.0604 | – | 0.0669 | 0.0738 | 0.0525 | 0.0691 | 0.0617 | 0.0649 | 0.0561 | – | – | 0.0702 | – | –
26 | F117M | 0.0647 | – | – | – | 0.0598 | – | – | – | – | – | – | – | – | – | – | 0.0566 | – | –
27 | Q118A | 0.0538 | 0.0742 | 0.0545 | 0.075 | 0.0702 | – | – | 0.0636 | – | 0.0662 | 0.0682 | 0.0641 | 0.0699 | 0.0669 | 0.0836 | – | – | –
28 | Q118F | 0.0758 | – | 0.0635 | 0.0641 | – | – | – | 0.0763 | – | 0.0553 | 0.0672 | – | 0.0582 | – | 0.0492 | 0.0619 | – | –
29 | Q118G | 0.0675 | 0.0607 | – | 0.0721 | – | – | – | – | – | – | 0.0516 | – | – | 0.0841 | 0.0664 | 0.067 | – | –
30 | Q118H | 0.0771 | – | – | 0.0552 | 0.0684 | 0.0548 | – | – | 0.0564 | – | 0.0709 | – | 0.0766 | 0.0755 | 0.083 | 0.0719 | – | –
31 | Q118N | 0.0728 | – | 0.11 | – | 0.0662 | – | – | 0.0423 | 0.0637 | 0.0684 | – | 0.0512 | – | – | – | – | – | –
